Data on 4 substances can be found in publication PMC10120764.

The chains behind the UniProt entries cited, without tags or fusion partners.
UniProt Q8R5A0: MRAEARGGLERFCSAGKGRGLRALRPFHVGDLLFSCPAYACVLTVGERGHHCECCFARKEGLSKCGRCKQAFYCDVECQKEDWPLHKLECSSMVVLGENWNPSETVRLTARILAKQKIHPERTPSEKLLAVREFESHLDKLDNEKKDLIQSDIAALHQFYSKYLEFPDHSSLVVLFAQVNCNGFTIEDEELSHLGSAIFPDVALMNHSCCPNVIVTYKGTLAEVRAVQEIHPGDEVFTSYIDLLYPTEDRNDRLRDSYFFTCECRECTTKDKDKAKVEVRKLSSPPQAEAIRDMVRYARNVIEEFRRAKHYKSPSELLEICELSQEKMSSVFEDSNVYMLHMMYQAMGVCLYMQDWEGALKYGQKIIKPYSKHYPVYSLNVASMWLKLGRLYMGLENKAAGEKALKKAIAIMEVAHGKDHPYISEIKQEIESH
UniProt Q8VIM5: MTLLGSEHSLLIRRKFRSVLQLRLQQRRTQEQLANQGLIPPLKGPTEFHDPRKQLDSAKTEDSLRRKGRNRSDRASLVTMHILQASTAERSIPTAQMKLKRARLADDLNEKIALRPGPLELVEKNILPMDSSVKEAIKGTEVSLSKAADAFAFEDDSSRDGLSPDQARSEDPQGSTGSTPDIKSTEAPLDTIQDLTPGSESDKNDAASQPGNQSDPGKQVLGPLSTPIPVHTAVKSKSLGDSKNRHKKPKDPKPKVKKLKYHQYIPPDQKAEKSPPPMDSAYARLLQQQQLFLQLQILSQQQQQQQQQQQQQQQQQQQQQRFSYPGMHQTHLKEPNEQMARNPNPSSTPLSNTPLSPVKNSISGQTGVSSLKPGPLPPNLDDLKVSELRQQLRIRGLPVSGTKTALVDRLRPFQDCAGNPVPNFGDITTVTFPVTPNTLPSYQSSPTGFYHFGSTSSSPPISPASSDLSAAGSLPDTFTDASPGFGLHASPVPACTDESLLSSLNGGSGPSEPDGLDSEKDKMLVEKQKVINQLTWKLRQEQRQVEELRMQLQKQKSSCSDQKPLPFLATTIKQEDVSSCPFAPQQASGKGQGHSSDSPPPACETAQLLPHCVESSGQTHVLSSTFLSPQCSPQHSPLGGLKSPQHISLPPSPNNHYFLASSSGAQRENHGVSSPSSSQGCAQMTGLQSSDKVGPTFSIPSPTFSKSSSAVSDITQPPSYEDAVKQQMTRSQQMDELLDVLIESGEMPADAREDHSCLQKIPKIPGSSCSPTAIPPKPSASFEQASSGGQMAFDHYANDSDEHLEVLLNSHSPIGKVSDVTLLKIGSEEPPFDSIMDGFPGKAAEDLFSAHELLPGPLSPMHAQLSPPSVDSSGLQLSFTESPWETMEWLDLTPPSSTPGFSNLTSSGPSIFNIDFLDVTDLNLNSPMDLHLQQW
UniProt Q09472: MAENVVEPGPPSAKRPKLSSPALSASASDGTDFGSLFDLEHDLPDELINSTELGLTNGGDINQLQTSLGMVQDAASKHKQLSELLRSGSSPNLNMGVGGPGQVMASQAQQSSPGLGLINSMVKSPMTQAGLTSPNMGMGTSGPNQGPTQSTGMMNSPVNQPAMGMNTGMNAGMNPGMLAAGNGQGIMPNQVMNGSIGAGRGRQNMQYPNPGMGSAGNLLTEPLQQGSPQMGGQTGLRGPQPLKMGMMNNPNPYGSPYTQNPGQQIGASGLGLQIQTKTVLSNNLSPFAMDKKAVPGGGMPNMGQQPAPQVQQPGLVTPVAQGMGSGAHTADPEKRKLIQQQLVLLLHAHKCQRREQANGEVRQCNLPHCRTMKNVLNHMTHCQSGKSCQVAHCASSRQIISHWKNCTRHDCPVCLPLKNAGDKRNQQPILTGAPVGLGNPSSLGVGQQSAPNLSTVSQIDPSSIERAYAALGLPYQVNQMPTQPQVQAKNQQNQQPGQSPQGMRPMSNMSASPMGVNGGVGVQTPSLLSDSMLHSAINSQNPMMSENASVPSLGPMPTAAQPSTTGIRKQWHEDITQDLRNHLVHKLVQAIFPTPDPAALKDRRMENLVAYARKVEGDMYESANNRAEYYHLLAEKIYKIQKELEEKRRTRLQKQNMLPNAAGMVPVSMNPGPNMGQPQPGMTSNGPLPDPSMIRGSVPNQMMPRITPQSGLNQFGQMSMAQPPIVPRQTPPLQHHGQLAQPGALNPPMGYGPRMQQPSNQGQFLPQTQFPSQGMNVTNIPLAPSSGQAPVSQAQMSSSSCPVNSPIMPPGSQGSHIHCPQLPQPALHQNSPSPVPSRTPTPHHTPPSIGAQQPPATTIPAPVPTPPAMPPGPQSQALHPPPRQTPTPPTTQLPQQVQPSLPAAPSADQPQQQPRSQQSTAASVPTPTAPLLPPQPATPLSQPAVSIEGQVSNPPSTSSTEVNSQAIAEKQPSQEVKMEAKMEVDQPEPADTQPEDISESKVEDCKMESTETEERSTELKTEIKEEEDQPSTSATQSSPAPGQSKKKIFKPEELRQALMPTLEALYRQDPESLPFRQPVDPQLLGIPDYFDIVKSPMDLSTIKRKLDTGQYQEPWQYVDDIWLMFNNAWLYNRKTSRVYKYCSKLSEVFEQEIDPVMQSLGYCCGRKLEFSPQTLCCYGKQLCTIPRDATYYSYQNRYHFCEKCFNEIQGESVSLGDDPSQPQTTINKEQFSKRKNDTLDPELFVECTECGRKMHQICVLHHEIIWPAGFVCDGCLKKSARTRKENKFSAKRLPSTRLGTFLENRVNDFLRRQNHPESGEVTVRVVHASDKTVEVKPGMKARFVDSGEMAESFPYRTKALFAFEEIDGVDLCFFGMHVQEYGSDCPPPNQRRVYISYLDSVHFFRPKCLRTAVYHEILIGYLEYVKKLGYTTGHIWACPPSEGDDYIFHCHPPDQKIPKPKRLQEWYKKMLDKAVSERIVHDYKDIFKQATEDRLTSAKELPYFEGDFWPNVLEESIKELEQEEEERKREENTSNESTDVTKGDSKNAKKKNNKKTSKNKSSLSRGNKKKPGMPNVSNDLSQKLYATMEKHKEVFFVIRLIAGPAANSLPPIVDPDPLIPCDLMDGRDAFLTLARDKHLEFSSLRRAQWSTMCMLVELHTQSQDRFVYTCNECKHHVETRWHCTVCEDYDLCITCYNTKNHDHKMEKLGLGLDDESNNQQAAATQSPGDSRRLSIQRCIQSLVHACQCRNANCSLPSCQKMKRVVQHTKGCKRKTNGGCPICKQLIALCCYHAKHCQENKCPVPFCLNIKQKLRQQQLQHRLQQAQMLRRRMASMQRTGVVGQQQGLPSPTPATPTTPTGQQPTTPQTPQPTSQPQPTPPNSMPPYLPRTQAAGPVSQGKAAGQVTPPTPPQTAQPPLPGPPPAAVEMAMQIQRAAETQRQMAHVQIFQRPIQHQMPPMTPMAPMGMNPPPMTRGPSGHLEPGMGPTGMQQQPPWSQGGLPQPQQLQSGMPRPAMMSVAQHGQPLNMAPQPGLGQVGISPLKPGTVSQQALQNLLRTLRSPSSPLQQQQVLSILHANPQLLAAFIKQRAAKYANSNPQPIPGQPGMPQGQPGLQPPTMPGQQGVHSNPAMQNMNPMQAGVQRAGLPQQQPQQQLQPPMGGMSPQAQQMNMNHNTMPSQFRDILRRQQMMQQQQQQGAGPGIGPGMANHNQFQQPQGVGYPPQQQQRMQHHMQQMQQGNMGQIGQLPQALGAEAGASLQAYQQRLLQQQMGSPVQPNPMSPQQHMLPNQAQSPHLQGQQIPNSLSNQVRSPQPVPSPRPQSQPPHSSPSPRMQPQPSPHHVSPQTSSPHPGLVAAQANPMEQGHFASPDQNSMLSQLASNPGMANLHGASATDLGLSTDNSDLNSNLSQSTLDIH

These are yes or no findings as the source states them, for the method shown. In cells and extracts the contact can be indirect. Some binding calls cover weakened binding; strength is not graded here. For some assays here: Tags and fused reporters may be left off the sequences shown.

The target in assay [1] is Myc-tagged SMYD2 (SET and MYND domain-containing protein 2) (UniProt Q8R5A0). Description: co-IP; 10T1/2 cells co-transfected with Myc-SMYD2, Flag-myocardin and HA-p300; nuclear extract, IP with anti-Myc antibody (normal rabbit IgG as control) in low salt IP buffer overnight at 4°C; blot with anti-SMYD2 and anti-HA.
Assay [2] concerns the target T1, tagged SRF (serum response factor) (UniProt Q9JM73).
T1 sequence: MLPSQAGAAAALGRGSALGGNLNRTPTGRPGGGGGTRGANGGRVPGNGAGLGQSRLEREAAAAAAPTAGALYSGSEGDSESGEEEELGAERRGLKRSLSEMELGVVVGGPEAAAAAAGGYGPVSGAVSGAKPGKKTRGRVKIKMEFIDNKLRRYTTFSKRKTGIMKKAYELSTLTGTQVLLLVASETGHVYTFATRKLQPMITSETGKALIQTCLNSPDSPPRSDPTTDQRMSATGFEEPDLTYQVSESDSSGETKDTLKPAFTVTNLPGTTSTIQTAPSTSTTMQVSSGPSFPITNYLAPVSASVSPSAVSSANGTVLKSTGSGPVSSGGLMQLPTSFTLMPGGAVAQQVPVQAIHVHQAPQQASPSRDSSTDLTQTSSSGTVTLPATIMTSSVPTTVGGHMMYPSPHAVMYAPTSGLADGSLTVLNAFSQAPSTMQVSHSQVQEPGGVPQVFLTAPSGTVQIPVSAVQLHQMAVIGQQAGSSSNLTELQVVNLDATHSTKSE
Briefly: co-IP; 10T1/2 cells overexpressing tagged SMYD2 and SRF; no figure shown.

Assay [3] has as its target Flag-tagged myocardin (UniProt Q8VIM5). Briefly: co-IP; 10T1/2 cells co-transfected with Myc-SMYD2 and Flag-myocardin for 48 h; 300 ug nuclear extract, IP with anti-Flag antibody (normal rabbit IgG as control) in low salt IP buffer overnight at 4°C, protein A/G beads; blot with anti-SMYD2 and anti-myocardin.
In assay [4] the target is T2, SRF, endogenous in cultured VSMCs (UniProt Q9JM73).
T2 sequence: T1 sequence
Briefly: co-IP; cultured VSMCs, endogenous proteins; no figure shown.

The target of assay [5] is myocardin, endogenous in primary murine aortic VSMCs (mouse (endogenous in primary murine aortic VSMCs)) (UniProt Q8VIM5). Description: proximity ligation; primary murine aortic VSMCs, serum-starved 24 h, treated with vehicle or PDGF-BB (10 ng/ml) for 24 h, fixed; anti-SMYD2 (mouse) and anti-myocardin (rabbit) with Duolink PLA probes.

Take “HA-tagged p300 (from UniProt Q09472 1-2414)”: the binding entry in assay [1] is given as “binds”.
For “Myc-tagged SMYD2 (SET and MYND domain-containing protein 2) (from UniProt Q8R5A0 1-433)”, the figures for the binding entry in assay [2] and in assay [3] were “no binding” and “binds”, respectively.
As for “SMYD2, endogenous in cultured VSMCs (from UniProt Q8R5A0 1-433)”, the binding result in assay [4] is on record as “no binding”.
With “SMYD2, endogenous in primary murine aortic VSMCs (from UniProt Q8R5A0 1-433)”, the binding result in assay [5] was “binds”.
